No constants are given. Whether binding was seen depends on the method and setting. Binding seen in cells or lysates may run through a third protein. Some binding calls cover weakened binding; strength is not graded here. Tags and fused reporters may be left off the sequences shown.
T1: COX11-FLAG (human) (UniProt Q9Y6N1)
T1 sequence: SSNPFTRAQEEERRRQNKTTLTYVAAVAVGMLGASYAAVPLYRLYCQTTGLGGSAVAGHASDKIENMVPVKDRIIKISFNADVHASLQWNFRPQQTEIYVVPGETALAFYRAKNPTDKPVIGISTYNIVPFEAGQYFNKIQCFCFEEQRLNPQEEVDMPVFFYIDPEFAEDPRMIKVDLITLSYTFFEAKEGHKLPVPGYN

T2: SCO2-FLAG (human) (UniProt O43819)
T2 sequence: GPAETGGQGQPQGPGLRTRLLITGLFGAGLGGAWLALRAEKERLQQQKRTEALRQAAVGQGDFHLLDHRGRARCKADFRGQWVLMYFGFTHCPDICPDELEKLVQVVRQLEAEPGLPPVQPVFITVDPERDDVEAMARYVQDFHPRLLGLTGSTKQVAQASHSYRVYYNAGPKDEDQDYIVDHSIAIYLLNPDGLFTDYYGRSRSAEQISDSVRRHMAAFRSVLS

T3: SCO1-FLAG (human) (UniProt O75880)
T3 sequence: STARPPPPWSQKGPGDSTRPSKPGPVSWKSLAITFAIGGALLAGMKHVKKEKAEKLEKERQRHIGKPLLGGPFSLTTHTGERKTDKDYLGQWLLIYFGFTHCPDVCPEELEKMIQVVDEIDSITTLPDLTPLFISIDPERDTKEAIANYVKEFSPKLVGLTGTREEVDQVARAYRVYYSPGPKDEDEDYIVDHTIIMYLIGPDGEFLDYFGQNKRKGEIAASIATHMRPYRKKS

T4: COX16-FLAG (human) (UniProt Q9P0S2)
T4 sequence: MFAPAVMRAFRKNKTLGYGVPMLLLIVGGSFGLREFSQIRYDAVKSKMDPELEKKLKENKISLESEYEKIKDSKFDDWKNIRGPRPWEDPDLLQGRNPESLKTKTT

T5: COX11 C219D-FLAG (human) (UniProt Q9Y6N1)
T5 sequence: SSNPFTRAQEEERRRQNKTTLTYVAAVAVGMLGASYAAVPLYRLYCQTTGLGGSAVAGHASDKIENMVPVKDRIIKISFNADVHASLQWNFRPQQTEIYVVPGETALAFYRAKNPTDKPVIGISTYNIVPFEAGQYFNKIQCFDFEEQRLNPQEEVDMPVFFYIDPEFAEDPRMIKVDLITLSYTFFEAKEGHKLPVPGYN

T6: PET191-FLAG (human) (UniProt Q86WW8)
T6 sequence: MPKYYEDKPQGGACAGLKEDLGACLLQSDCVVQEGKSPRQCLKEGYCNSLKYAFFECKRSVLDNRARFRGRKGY

T7: COX17-FLAG (human) (UniProt Q14061)
T7 sequence: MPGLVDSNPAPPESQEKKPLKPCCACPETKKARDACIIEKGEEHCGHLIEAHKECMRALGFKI

T8: PET191(C30A, C41A)-FLAG (human) (UniProt Q86WW8)
T8 sequence: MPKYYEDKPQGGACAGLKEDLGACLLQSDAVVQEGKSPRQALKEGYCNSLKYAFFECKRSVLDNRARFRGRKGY

T9: COA6-FLAG (human) (UniProt Q5JTJ3)
T9 sequence: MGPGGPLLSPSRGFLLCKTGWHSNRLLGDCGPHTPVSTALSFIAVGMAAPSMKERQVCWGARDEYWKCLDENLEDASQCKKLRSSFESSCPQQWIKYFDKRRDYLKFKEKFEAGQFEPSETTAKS


Legend:
COX11-FLAG (human) [1] = molecular target: T1, COX11-FLAG (human); experiment: cross-linking + co-IP; transient interactions: mitochondria treated with 1 mM DSP 1.5 h at 4 C (DMSO as vehicle control), quenched with 10 mM Tris-HCl, extracted in PBS, 0.4% DDM, anti-FLAG beads, immunoblotting for 13 candidate proteins; also in KO backgrounds and after chloramphenicol treatment
SCO2-FLAG (human) = molecular target: T2, SCO2-FLAG (human); experiment: as above
SCO1-FLAG (human) = molecular target: T3, SCO1-FLAG (human); experiment: as above
COX16-FLAG (human) = molecular target: T4, COX16-FLAG (human); experiment: as above
COX11 C219D-FLAG (human) = molecular target: T5, COX11 C219D-FLAG (human); experiment: as above
PET191-FLAG (human) [2] = molecular target: T6, PET191-FLAG (human); experiment: co-IP; as a6 (no crosslinker), PET191-FLAG expressed in COX11-KO cells
COX11-FLAG (human) [3] = molecular target: T1, COX11-FLAG (human); experiment: co-IP; stable interactions: mitochondria without crosslinker (DMSO vehicle), extracted in PBS, 0.4% DDM, anti-FLAG beads 4 h at 4 C, five washes in PBS 0.05% DDM, immunoblotting; for COX11-COX19 also after pre-incubation of mitochondria with 5 mM GSH
PET191-FLAG (human) [4] = molecular target: T6, PET191-FLAG (human); experiment: as above
COX17-FLAG (human) [5] = molecular target: T7, COX17-FLAG (human); experiment: as above
PET191-FLAG (human) [6] = molecular target: T6, PET191-FLAG (human); experiment: cross-linking + co-IP; transient interactions: mitochondria treated with 1 mM DSP 1.5 h at 4 C (DMSO as vehicle control), quenched with 10 mM Tris-HCl, extracted in PBS, 0.4% DDM, anti-FLAG beads, immunoblotting for 13 candidate proteins; also in KO backgrounds and after chloramphenicol treatment
[7] = molecular target: T8, PET191(C30A, C41A)-FLAG (human); experiment: as above
COX17-FLAG (human) [8] = molecular target: T7, COX17-FLAG (human); experiment: as above
COA6-FLAG (human) = molecular target: T9, COA6-FLAG (human); experiment: co-IP; stable interactions: mitochondria without crosslinker (DMSO vehicle), extracted in PBS, 0.4% DDM, anti-FLAG beads 4 h at 4 C, five washes in PBS 0.05% DDM, immunoblotting; for COX11-COX19 also after pre-incubation of mitochondria with 5 mM GSH

binding (COX11-FLAG (human) [1])	binding (SCO2-FLAG (human))	binding (SCO1-FLAG (human))	binding (COX16-FLAG (human))	binding (COX11 C219D-FLAG (human))	binding (COX11-FLAG (human) [3])	binding (PET191-FLAG (human) [4])	binding (COX17-FLAG (human) [5])	binding (PET191-FLAG (human) [6])	binding [7]	binding (COX17-FLAG (human) [8])	binding (COA6-FLAG (human))	Binder	binding (PET191-FLAG (human) [2])
binds	binds	binds	binds	binds								PET191 (endogenous) (protein, UniProt Q86WW8 1-74) MPKYYEDKPQGGACAGLKEDLGACLLQSDCVVQEGKSPRQCLKEGYCNSLKYAFFECKRSVLDNRARFRGRKGY	
binds	binds		binds	binds	binds	binds	binds	binds	binds	binds		SCO1 (endogenous) (protein, UniProt O75880 68-301) STARPPPPWSQKGPGDSTRPSKPGPVSWKSLAITFAIGGALLAGMKHVKKEKAEKLEKERQRHIGKPLLGGPFSLTTHTGERKTDKDYLGQWLLIYFGFTHCPDVCPEELEKMIQVVDEIDSITTLPDLTPLFISIDPERDTKEAIANYVKEFSPKLVGLTGTREEVDQVARAYRVYYSPGPKDEDEDYIVDHTIIMYLIGPDGEFLDYFGQNKRKGEIAASIATHMRPYRKKS	no binding (condition: in COX11-KO cells)
binds	binds		binds	binds								COA6 (endogenous) (protein, UniProt Q5JTJ3 1-125) MGPGGPLLSPSRGFLLCKTGWHSNRLLGDCGPHTPVSTALSFIAVGMAAPSMKERQVCWGARDEYWKCLDENLEDASQCKKLRSSFESSCPQQWIKYFDKRRDYLKFKEKFEAGQFEPSETTAKS	
binds	binds	binds	binds		binds			binds	binds			COX19 (endogenous) (protein, UniProt Q49B96 1-90) MSTAMNFGTKSFQPRPPDKGSFPLDHLGECKSFKEKFMKCLHNNNFENALCRKESKEYLECRMERKLMLQEPLEKLGFGDLTSGKSEAKK	
binds	binds	binds	binds	binds				binds	binds			COA3 (protein, UniProt Q9Y2R0 1-106) MASSGAGDPLDSKRGEAPFAQRIDPTREKLTPEQLHSMRQAELAQWQKVLPRRRTRNIVTGLGIGALVLAIYGYTFYSISQERFLDELEDEAKAARARALARASGS	
binds		binds	binds	binds	binds	binds	binds	binds	binds	binds	binds	SCO2 (endogenous) (protein, UniProt O43819 42-266) GPAETGGQGQPQGPGLRTRLLITGLFGAGLGGAWLALRAEKERLQQQKRTEALRQAAVGQGDFHLLDHRGRARCKADFRGQWVLMYFGFTHCPDICPDELEKLVQVVRQLEAEPGLPPVQPVFITVDPERDDVEAMARYVQDFHPRLLGLTGSTKQVAQASHSYRVYYNAGPKDEDQDYIVDHSIAIYLLNPDGLFTDYYGRSRSAEQISDSVRRHMAAFRSVLS	no binding (condition: in COX11-KO cells)
binds	binds	binds		binds		binds		binds	binds		binds	COX16 (endogenous) (protein, UniProt Q9P0S2 1-106) MFAPAVMRAFRKNKTLGYGVPMLLLIVGGSFGLREFSQIRYDAVKSKMDPELEKKLKENKISLESEYEKIKDSKFDDWKNIRGPRPWEDPDLLQGRNPESLKTKTT	
	binds	binds	binds	binds								COX17 (endogenous) (protein, UniProt Q14061 1-63) MPGLVDSNPAPPESQEKKPLKPCCACPETKKARDACIIEKGEEHCGHLIEAHKECMRALGFKI	
